Laboratory results published in article PMC10215934, “Daptomycin Pharmacokinetics in Blood and Wound Fluid in Critical Ill Patients with Left Ventricle Assist Devices” (Antibiotics, 2023).

Experiments:
[1] = Daptomycin concentration in wound (drainage) fluid, HPLC-UV; conditions: drainage fluid, LVAD patients, 5-8 mg/kg iv once daily, HPLC-UV, mean ± SD, n = 9
Description: (§1) This single-center prospective trial was carried out in the intensive care unit 39 of the department of anesthesia and intensive care medicine at the university hospital of Tübingen from April 2017 to March 2019. All patients scheduled for implantation of a left ventricular assist device were screened for inclusion and exclusion criteria. All patients received prophylactic antibiotic therapy, including daptomycin, during the first 5 or 7 postoperative days. Daptomycin (5 to 8 mg per kg of body weight) was infused over 30 min, once daily, at 7 a.m. Samples were taken following the schedule below (Table 3).
(§2) Blood samples were drawn from the arterial catheter already in place and considering hygiene requirements. The fluid samples from the drain systems were taken from the incorporated port under consideration of the standard hygienic procedures to avoid any contamination of the system. The samples were labeled with the number of the patient, the time of collection, and the date following the study protocol. All samples were centrifuged, and the supernatant was stored at −80 °C until dispatch to the laboratory in Heidenheim (Department of Pharmacy, General Hospital of Heidenheim). Measurements were performed using high-performance liquid chromatography with ultraviolet detection (HPLC-UV).
Daptomycin (5–8 mg per kg body weight; MSD; Switzerland) was infused intravenously once daily as part of an anti-infective regime to prevent early infections of either the implanted pump or the driveline at 7 am. Blood samples were drawn from the arterial catheter already in place, and samples of wound fluids were taken from the drainage system directly from the incorporated port before they reached the container at indicated time points, considering standard hygienic requirements.
The HPLC-UV measurement for daptomycin was conducted as part of the routine TDM program at the hospital of Heidenheim. Although data for certain target levels are sparse, there is an approach to reach AUC24/MHK >666 mg*h/L for effectivity and trough levels <24 mg/L and to minimize musculosceletal toxicity. […]

[2] = Safety: adverse events and laboratory values under daptomycin; assay type: in vivo, human; conditions: for Lactatdehydrogenase / creatinine kinase: mean ± SD; for creatinine kinase: n = 9
Text: Further, we collected patient demographics, clinical and laboratory data, microbiological findings, the duration of anti-infective therapy, and clinical outcome information. The institutional review board approved the study, and written informed consent was obtained from all patients before participation.

[3] = cited from earlier work
[4] = Penetration of daptomycin from blood into wound fluid (AUCdrain/AUCblood, Rmcorr correlation); assay type: in vivo, human; conditions: mean ± SD, n = 9
Description: Samples were taken following the schedule below (Table 3).
All daptomycin values in the blood serum and wound fluids, from pleura and mediastinum, were examined among themselves and over time using a repeated measure correlation. Continuous measures were summarized as the means, standard deviation, medians, and interquartile ranges (IQR) according to the data distribution. The normality of the distribution was assessed by investigating skewness and kurtosis, as well as QQ graphs, box plots, and histograms. The association between blood and wound fluid daptomycin mean levels was examined using repeated measures correlation (R package rmcorr; version 0.5.4), which determined the relationship between two continuous variables while controlling for individual variances. The rmcorr correlation coefficient is a common statistical method for paired measurements assessed on two or more occasions for multiple individuals. Similar to the Pearson correlation coefficient, the rmcorr coefficient (rrm) ranges from −1 to +1 and reports the strength of the linear association between two variables. Linear mixed effect models assessed the difference in the mean daptomycin concentration in the blood serum during the three-time points with random intercepts; the slopes were set as fixed parameters. A two-tailed p-value below 0.05 was considered statistically significant. […]

[5] = Daptomycin pharmacokinetics in blood serum, HPLC-UV; conditions: second and third day of antibiotic administration
Description: as §1
as §2, with “(HPLC-UV). […]” for “(HPLC-UV).”

[6] = nine LVAD patients, treatment 5-10 days

`CCCCCCCCCC(=O)N[C@@H](Cc1c[nH]c2ccccc12)C(=O)N[C@H](CC(N)=O)C(=O)N[C@@H](CC(=O)O)C(=O)N[C@@H]1C(=O)NCC(=O)N[C@@H](CCCN)C(=O)N[C@@H](CC(=O)O)C(=O)N[C@H](C)C(=O)N[C@@H](CC(=O)O)C(=O)NCC(=O)N[C@H](CO)C(=O)N[C@@H]([C@H](C)CC(=O)O)C(=O)N[C@@H](CC(=O)c2ccccc2N)C(=O)O[C@@H]1C` [Daptomycin] gave an AUCdrain ([1]; Day 1 (24 h)) of 383 ± 140 µg·h/mL, an AUCdrain ([1]; Day 2 (48 h)) of 512 ± 173 µg·h/mL and an AUCdrain ([1]; Day 3 (72 h)) of 695 ± 291 µg·h/mL. It also gave a Lactatdehydrogenase ([2]; day 1) of 343.9 ± 23.1 U/L, a creatinine kinase ([2]; day 1) of 631.8 ± 209.2 U/L and a Lactatdehydrogenase ([2]; day 2) of 299.8 ± 15.9 U/L. For the same molecule, the creatinine kinase ([2]; day 2) was 409.8 ± 193.8 U/L, the creatinine kinase ([2]; day 3) was 362.6 ± 168.3 U/L and the “adverse events (AEs) or serious events (SAEs)” value [2, 6] was “No adverse events (AEs) or serious events (SAEs) occurred”. For the same molecule, the “rarer events (rhabdomyolysis, red-man syndrome, thrombocytopenia, eosinophilic pneumonia, fungal infection)” value [2, 6] was “No other rarer events were reported”, the Lactatdehydrogenase ([2]; postoperative) was 366.3 ± 29.7 U/L and the creatinine kinase ([2]; postoperative) was 542.9 ± 170.7 U/L. For the same molecule, the “AUC24/MHK target for effectivity” value [3] was > 666 µg·h/mL, the “AUC necessary for sufficient anti-microbial effects” value ([3]; metanalysis) was “over 666 µg*h/mL” and the “low Cmin associated with poorer outcomes” value ([3]; patients with bacteraemia, complicated skin or soft-tissue infections, endovascular infections) was < 3180 ng/mL. For the same molecule, the “PR: penetration ratio (AUCdrain/AUCblood)” value ([4]; Day 1) was 0.4 ± 0.1, the “PR: penetration ratio (AUCdrain/AUCblood)” value ([4]; Day 2) was 0.4 ± 0.1 and the Cmin in blood [5] was > 24300 ng/mL.
